Laboratory results from PubChem BioAssay AID1963576 (National Center for Advancing Translational Sciences (NCATS), 2024).
Hit rate of the full screen: of about 46,000 compounds, about 60 (0.1%) were called active. Not shown: some 3% with an inconclusive outcome. The call rests on the fitted dose curve; in most records, active means well fitted inhibition curve with a large enough effect; inconclusive means small, poorly fitted or top-dose-only effect; inactive means no such curve, though single readings can be large or run the other way. The list shows a part of the results.

Assay: Primary qHTS assay for Inhibitors of ovarian cancer metastasis using an organotypic tumor microenvironment (TME) model. Further: nearly all actives have a fitted effect of over 65% in size.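 On activity change, negative = inhibition: plate controls were DMSO wells for no effect and tomatine positive control wells for full effect.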
Details: SKOV3ip1-GFP adhesion/invasion on 3D omental model, fluorescence; series mostly up to 45.8 µM; activity change, negative = inhibition: at the top concentration
How it was run: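 qHTS, 4-pt dose (0.36-46 umol/L); SKOV3ip1-GFP, 1,200 cells/well, no FBS; primary omental fibroblast/mesothelial co-culture 48 h pre-grown; 2 h RT + 16 h 37 C; PBS wash, 4% PFA; GFP count 488/509 nm.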

SMILES	outcome	activity change, negative = inhibition
Cc1cccc(C(=O)Nc2nc(-c3nnn(-c4cc(C)ccc4C)c3C)ns2)c1	inactive	
CCC(C)N(C)C(=O)c1cc2ccccc2c(-c2ccccc2Cl)n1 (stereo not drawn)		inactive: -18.1%
CCN1C(=O)c2ccccc2Sc2ccc(NC(=O)c3ccc(C)c(F)c3)cc21		inactive: -1.79%
COc1cccc(NC(CNS(=O)(=O)c2ccc(C)cc2)c2ccccc2)c1 (stereo not drawn)		inactive: 3.18%
O=C(Cn1nnc2sc3c(c2c1=O)CCCC3)Nc1ccc(F)c(Cl)c1		inactive: -19.4%
CN(Cc1ccccc1)c1ncnc2c1nc1n2CCCC1		inactive: -17.3%
COc1ccccc1N(CC(=O)NCCSCc1ccc(Cl)cc1)S(C)(=O)=O		inactive: 7.83%
Cc1cc(-c2ccc(C)c(S(=O)(=O)NCc3ccc(Cl)cc3)c2)on1		inactive: -14.9%
CCCS(=O)(=O)NCCc1csc2nc(-c3ccc(OC)cc3)nn12		inactive: 18.2%
CCc1c(C)nc2nncn2c1Nc1ccc(C)c(F)c1		inactive: 5.71%
Cc1ccccc1CNC(=O)CCCn1nc(C)c2sc3ccccc3c2c1=O		inactive: 1.17%
COc1ccc(C2NC(=O)NC(C)=C2C(=O)Nc2cc(C)cc(C)c2)c(OC)c1 (stereo not drawn)	inactive	
Cc1ccc(CS(=O)(=O)Cc2ccc(C(=O)NCCc3ccc(Cl)cc3)o2)cc1	inactive	
COc1cccc(C(=O)Nc2nnc(S(=O)(=O)N3CCOCC3)s2)c1		inactive: 34.8%
COc1cc(OC)cc(C(=O)Nc2ccc3nc(N4CCC(C)CC4)cc(C)c3c2)c1	inactive	
CCCCOc1cccc(C(=O)Nc2cccc3ccc(C)nc23)c1	inactive	
CCOC(=O)c1c(C)[nH]c(C)c1S(=O)(=O)N1CCC(C(=O)Nc2ccccn2)CC1		inactive: 3.28%
COc1ccc(C2CC(=O)Nc3c2c(=O)nc2c(C)cccn32)cc1 (stereo not drawn)		inactive: 5.68%
Cc1ccc2oc(=O)n(CCNC(=O)Nc3ccccc3Cl)c2c1	inactive	
CCC12CN3CC(CC)(CN(C1)C3c1ccc(OCc3ccccc3)cc1)C2=O (stereo not drawn)		inactive: 4.94%
Cc1ccc2c(CC(=O)Nc3cc(C(F)(F)F)ccc3Cl)coc2c1C	inactive	
Cc1cc(C)c2c(=O)cc(C(=O)Nc3ccccc3Cl)oc2c1		inactive: -4.51%
CCc1ccc(-c2nc3c(c(SCc4ccc(F)cc4)n2)Cc2c(CO)cnc(C)c2O3)cc1		inactive: 9.67%
CCS(=O)(=O)N1CC(=O)N(c2ccc(C)c(C)c2)C(C)(C(=O)NC2CCCCC2)C1 (stereo not drawn)		inactive: 7.01%

SMILES	outcome	activity change, negative = inhibition
CCC(C)NC(=O)C1CCC(CNS(=O)(=O)c2cccc3nsnc23)CC1 (stereo not drawn)		inactive: 1.73%
O=c1oc2ccc(Br)cc2cc1-c1nc(-c2ccccc2)no1		inactive: -9.89%
COc1ccc(C(=O)c2oc3ccccc3c2NC(=O)COc2c(C)cc(C)cc2C)cc1	inactive	
CC1=C(C(=O)NCCc2ccc(Cl)cc2)C2(CCCCC2)OC1=O		inactive: -2.5%
COCCNC(=O)CCCn1c(SCC(=O)Nc2cccc(C)c2)nc2c(sc3ccccc32)c1=O		inactive: -9.88%
COc1cccc(CNC(=O)Cn2ncc3c4ccccc4n(C)c3c2=O)c1	inactive	
COc1ccc(N2CCN(C(c3ccccc3)c3nnc(-c4ccccc4Cl)o3)CC2)cc1 (stereo not drawn)		inactive: -0.738%
Cc1cccc(NC(=O)CSc2nc3c(oc4ccccc43)c(=O)n2C(C)C)c1		inactive: -27%
CCOc1ccc(N2CC(c3nc4ccccc4n3CC(C)C)CC2=O)cc1 (stereo not drawn)		inactive: 1.34%
COc1cccc(CNC(=O)c2c(O)nc3ccccn3c2=O)c1	inactive	
Cc1ccc(C)c(N2CCN(C(=O)c3ccc4c(Cl)c5c(nc4c3)CCCC5)CC2)c1	inactive	
COCC(=O)N1CCc2cc(OC)c(OC)cc2C1COc1ccc2c(C)cc(=O)oc2c1 (stereo not drawn)		inactive: 8.66%
COc1cc(NC(=O)CCNS(=O)(=O)c2ccc3c(c2)CCN3C(=O)C2CC2)cc(OC)c1		inactive: 54.8%
COc1cc(-c2noc(-c3ccc(NCCc4ccccc4)c([N+](=O)[O-])c3)n2)cc(OC)c1OC	inactive	
COc1cccc(CNC(=O)Cn2ccc3cc(S(=O)(=O)N4CCCC4)ccc32)c1		inactive: 1.65%
CCOc1ccccc1N1CC(c2nc3ccccc3n2CCCOc2ccccc2OC)CC1=O (stereo not drawn)		inactive: 0.951%
CCOc1ccc(S(=O)(=O)NCCc2sc(-c3ccc(C)cc3)nc2C)cc1	inactive	
O=C(Nc1nc2nc(-c3ccccc3)cc(=O)n2[nH]1)c1ccc(F)cc1		inactive: 3.29%
N#Cc1ccccc1Cn1nnc2c(=O)[nH]c(C3CCCN(S(=O)(=O)c4ccc(F)cc4)C3)nc21 (stereo not drawn)		inactive: -9.38%
O=C(Nc1sc2c(c1C(=O)NCc1ccccc1)CCCC2)c1cc(=O)c2cc(Cl)ccc2o1		inactive: -1.14%
CCc1ccccc1N1CC(c2nc3ccccc3n2Cc2cccc(C)c2)CC1=O (stereo not drawn)		inactive: 1.25%
O=C(Nc1cccnc1Cl)c1cc(-c2ccc(Cl)cc2)on1		inactive: -4.67%
COc1cc(NC(=O)Cn2c(=O)n(C(C)C)c(=O)c3oc4ccccc4c32)cc(OC)c1	inactive	
CC1CCc2nn(CC(=O)Nc3cccc(C(F)(F)F)c3)c(=O)cc2C1 (stereo not drawn)		inactive: 5.39%
